From the supplement of paper PMC10369915 come the findings set out here.

First the molecules themselves.
B1: ACTC1_Y93_R97C (peptide)
chain: WHHTFYNELCV
B2: ACTG1_Y69_P70L (peptide)
chain: ILTLKYLIEHG
B3: ACVRL1_Y421_F425L (peptide)
chain: GIVEDYRPPLY
B4: ACOT4_Y52 (peptide)
chain: RAHARYCADAR
B5: ACTC1_Y168_P166A (peptide)
chain: HNVAIYEGYAL
B6: ACAN_Y100 (peptide)
chain: RVNSAYQDKVS
B7: ACTA1_Y145_A140P (peptide)
chain: PVLSLYASGRT
B8: ACAT1_Y90 (peptide)
chain: EVKEAYMGNVL
B9: ADA_Y290_S291L (peptide)
chain: NDQANYLLNTD
B10: ACOX1_Y232_G231V (peptide)
chain: GPKFVYDEIDN
B11: ABLIM1_Y638 (peptide)
chain: LLASRYDSPIN
B12: ACTC1_Y93_H90Y_YF (peptide)
chain: WHFTFYNELRV
B13: ACP1_Y133_S137F_YF (peptide)
chain: IEDPFYGNDFD
B14: ACVRL1_Y375_P378L (peptide)
chain: VGTKRYMALEV
B15: ACTB_Y69_L65V (peptide)
chain: IVTLKYPIEHG
B16: ACVRL1_Y375_E379K (peptide)
chain: VGTKRYMAPKV
B17: ACTA1_Y364 (peptide)
chain: ITKQEYDEAGP
B18: ACTC1_Y93_H90Y (peptide)
chain: WHYTFYNELRV
B19: ACAD9_Y325_A326T (peptide)
chain: EMTAEYTCTRK

This is one part of the list. Rule as the data show it: active = 3.2 or more and inactive = the rest. The signal is at background level for most entries.
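Also: displayed peptides selected on beads carrying the immobilized SH2 domain, with library peptides lacking any tyrosine serving as negative controls.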

In the first experiment the target is SHP2 C-SH2 domain E139D. The experiment can be described thus: enrichment score (SH2-bound / input frequency) (ratio); bacterial display of known human phosphotyrosine sites (pTyr-Var adds point mutants) read by sequencing; higher = stronger binding; tyrosines were phosphorylated by kinases first. The conditions noted are these: peptide library: pTyr-Var.
Take B1: the enrichment score is inactive: 1.49.

B2: the enrichment score was inactive: 2.91.

For the molecule B3, the enrichment score is inactive: 0.868.

For the molecule B4, the enrichment score is inactive: 0.654.

Take B5: the enrichment score was inactive: 0.678.

With B6, the enrichment score was inactive: 0.661.

Regarding B7, the enrichment score was inactive: 1.13.

On to B8, for which the enrichment score is inactive: 0.785.

As for B9, the enrichment score is inactive: 0.596.

Consider B10, for which the enrichment score was inactive: 0.567.

As for B11, the enrichment score was inactive: 0.958.

Regarding B12, the enrichment score is inactive: 0.578.

With B13, the enrichment score was inactive: 0.76.

Turning to B14, the enrichment score was inactive: 0.76.

For the molecule B15, the enrichment score is inactive: 1.34.

On to B16, for which the enrichment score was inactive: 0.451.

Turning to B17, the enrichment score is inactive: 0.304.

For B18, the enrichment score is inactive: 1.16.

For B19, the enrichment score is inactive: 0.691.

The target in a further experiment is SHP2 C-SH2 domain wild-type. The description is as above. The conditions noted are these: peptide library: pTyr-Var.
Regarding B1, the enrichment score is inactive: 1.52.

For B2, the enrichment score was inactive: 3.05.

On to B3, for which the enrichment score is inactive: 0.812.

Consider B4, for which the enrichment score is inactive: 0.55.

Take B5: the enrichment score was inactive: 0.796.

As for B6, the enrichment score is inactive: 0.642.

As to B7, the enrichment score was inactive: 0.843.

Regarding B8, the enrichment score is inactive: 0.711.

As to B9, the enrichment score was inactive: 0.51.

In the case of B10, the enrichment score is inactive: 0.538.

With B11, the enrichment score was inactive: 0.957.

Regarding B12, the enrichment score was inactive: 1.19.

Regarding B13, the enrichment score is inactive: 0.696.

In the case of B14, the enrichment score was inactive: 0.575.

On to B15, for which the enrichment score was inactive: 1.09.

Regarding B16, the enrichment score is inactive: 0.602.

On to B17, for which the enrichment score was inactive: 0.494.

For the molecule B18, the enrichment score was inactive: 1.11.

On to B19, for which the enrichment score is inactive: 0.908.

The target in the next experiment is SHP2 N-SH2 domain L43F. The experiment is described as above. The following applies: peptide library: pTyr-Var.
With B1, the enrichment score was inactive: 1.25.

Take B2: the enrichment score is inactive: 2.31.

B3: the enrichment score is inactive: 0.791.

For the molecule B4, the enrichment score is inactive: 0.551.

On to B5, for which the enrichment score was inactive: 0.729.

With B6, the enrichment score was inactive: 0.763.

Take B7: the enrichment score was inactive: 0.961.

Regarding B8, the enrichment score was inactive: 1.28.

Turning to B9, the enrichment score is inactive: 0.743.

For the molecule B10, the enrichment score is inactive: 0.708.

For the molecule B11, the enrichment score was inactive: 0.953.

On to B12, for which the enrichment score is inactive: 0.805.

As for B13, the enrichment score is inactive: 0.817.

Consider B14, for which the enrichment score is inactive: 0.575.

With B15, the enrichment score is inactive: 1.24.

For the molecule B16, the enrichment score was inactive: 0.561.

Regarding B17, the enrichment score is inactive: 0.358.

For B18, the enrichment score was inactive: 1.24.

For B19, the enrichment score was inactive: 0.44.

A further experiment deals with SHP2 N-SH2 domain T42A. Described as above. The following applies: peptide library: pTyr-Var.
As for B1, the enrichment score was inactive: 1.28.

B2: the enrichment score was inactive: 2.54.

With B3, the enrichment score was inactive: 0.675.

Take B4: the enrichment score was inactive: 0.393.

For the molecule B5, the enrichment score was inactive: 0.612.

Consider B6, for which the enrichment score was inactive: 0.544.

With B7, the enrichment score was inactive: 0.774.

Regarding B8, the enrichment score is inactive: 0.779.

With B9, the enrichment score was inactive: 0.564.

Take B10: the enrichment score was inactive: 1.24.

In the case of B11, the enrichment score is inactive: 0.812.

Take B12: the enrichment score is inactive: 0.728.

B13: the enrichment score was inactive: 0.515.

In the case of B14, the enrichment score was inactive: 1.43.

As to B15, the enrichment score was inactive: 1.1.

For the molecule B16, the enrichment score was inactive: 0.513.

Consider B17, for which the enrichment score was inactive: 0.411.

B18: the enrichment score is inactive: 1.09.

On to B19, for which the enrichment score is inactive: 0.825.

The next experiment has as its target SHP2 N-SH2 domain T52S. The experiment is described as above. The conditions noted are these: peptide library: pTyr-Var.
As to B1, the enrichment score was inactive: 1.22.

For B2, the enrichment score was inactive: 2.54.

For B3, the enrichment score was inactive: 0.739.

Regarding B4, the enrichment score was inactive: 0.518.

Turning to B5, the enrichment score is inactive: 0.547.

With B6, the enrichment score was inactive: 0.888.

In the case of B7, the enrichment score was inactive: 1.02.

As for B8, the enrichment score is inactive: 0.828.

With B9, the enrichment score was inactive: 0.652.

Turning to B10, the enrichment score is inactive: 0.735.

In the case of B11, the enrichment score is inactive: 1.05.

As to B12, the enrichment score is inactive: 0.638.

B13: the enrichment score is inactive: 0.609.

For the molecule B14, the enrichment score is inactive: 0.708.

Consider B15, for which the enrichment score was inactive: 1.34.

Consider B16, for which the enrichment score was inactive: 0.588.

Turning to B17, the enrichment score was inactive: 0.434.

With B18, the enrichment score was inactive: 0.965.

Turning to B19, the enrichment score was inactive: 0.947.

Another experiment addresses SHP2 N-SH2 domain wild-type. The experiment is described as above. The conditions noted are these: peptide library: pTyr-Var.
As to B1, the enrichment score was inactive: 1.75.

With B2, the enrichment score was inactive: 2.86.

For B3, the enrichment score was inactive: 0.846.

Turning to B4, the enrichment score was inactive: 0.636.

In the case of B5, the enrichment score was inactive: 0.954.

B6: the enrichment score is inactive: 0.947.

In the case of B7, the enrichment score was inactive: 1.26.

Turning to B8, the enrichment score is inactive: 0.851.

For B9, the enrichment score was inactive: 0.749.

Take B10: the enrichment score is inactive: 0.66.

On to B11, for which the enrichment score was inactive: 1.02.

Consider B12, for which the enrichment score was inactive: 1.02.

B13: the enrichment score is inactive: 0.854.

Regarding B14, the enrichment score was inactive: 0.796.

In the case of B15, the enrichment score was inactive: 1.1.

On to B16, for which the enrichment score is inactive: 0.73.

Regarding B17, the enrichment score was inactive: 0.328.

Regarding B18, the enrichment score is inactive: 1.4.

With B19, the enrichment score is inactive: 1.02.
